Paper PMC12136788
This is one part of the list.

T1: UNK ZnF1-3 (human, UniProt Q9C0B0 31-174)
T1 sequence: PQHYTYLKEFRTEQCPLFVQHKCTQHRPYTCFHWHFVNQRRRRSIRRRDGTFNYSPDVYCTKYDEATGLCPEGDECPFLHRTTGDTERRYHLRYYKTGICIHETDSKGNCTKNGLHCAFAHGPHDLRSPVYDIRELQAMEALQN

B1: chr3:58389949:58389950:+_ENSMUSG00000075700_ENSMUST00000107924|mus_mus|FALSE|FALSE (ssRNA)
RNA: GGGAGUUCUACAGUCCGACGAUCCAGGAAGAAAACCAUCAUACAUGCAUAAACCUUAUUUUCUUGGCCCCACUGCCAGAUGCUAGGAGCUUGCAUGCCGAAAAAAGCAAAAGGAUCUUUGCCAACAAUUAUUAAGCCUAUUAACAACAGAGGAUUGAGCAUCA
B2: chr12:79978091:79978092:+_ENSMUSG00000021116_ENSMUST00000071230|mus_mus|FALSE|FALSE (ssRNA)
RNA: GGGAGUUCUACAGUCCGACGAUCGCUCUCCAGCUGCUCAUCCUUGGUAUAUUCUAAUACCUCAGCAACAUGGCGAAGAAUGCUAUAAACAGUUUUGGAUUUUGUGAAUUUGUCCUCACAUUUGAUUGCUUCCUCUGGAGAAACCAACAGAGGAUUGAGCAUCA
B3: chr19:37619525:37619526:+_ENSG00000197050_ENST00000337995|hu_mus|FALSE|FALSE (ssRNA)
RNA: GGGAGUUCUACAGUCCGACGAUCUUCCUUACAGUCCAAAGAUUUGCCACGGAUAUGAAUUCUCUGAUGUCGCAUUAGUUGAGACUCACGUGUAAAGGCCUUUUCACAUUCUUUACACUGAUACGGUUUCUCGCCAGUAUGAACCAACAGAGGAUUGAGCAUCA
B4: chr12:52885226:52885227:-_ENSMUSG00000035247_ENSMUST00000042052|mus_mus|motif|central (ssRNA)
RNA: GGGAGUUCUACAGUCCGACGAUCUUUGAAGACAUUUAUUCUUUCUACCAGUUGACUACAAUCUUGCUUCAUAUCCAAAUCGGUACGGUUGUUUAGAACAGUAAGAAGUGCCUGGACUAAACCACUACUACACAUUUCAUACGGCAACAGAGGAUUGAGCAUCA
B5: chr3:89559821:89559822:-_ENSMUSG00000027950_ENSMUST00000029562|mus_mus|FALSE|FALSE (ssRNA)
RNA: GGGAGUUCUACAGUCCGACGAUCCCCAGCACAGCCCUGCCUACCUUUAUUCCCACAGUGUAAAUGCUGGGAGCAGGUUCUAAGAUGGGCGCUGUUUGCCUGAUAUGUUCAACAGGAUACGGAAAGGAGCUGGACAAACUGUUCCAACAGAGGAUUGAGCAUCA
B6: chr7:88174460:88174461:+_ENSMUSG00000005621_ENSMUST00000107353|mus_mus|FALSE|FALSE (ssRNA)
RNA: GGGAGUUCUACAGUCCGACGAUCGCACCUGUAGCCCACUUUUCGGGCAUAGUGCAGGCAAUUCUCCUUUACGUGAGUCUGGAAGUAAGCAGAGCGACAGAGGACACCGCACUCCGGGCAGCAGUAGGGGGACUUGUGUGCAUGCAACAGAGGAUUGAGCAUCA
B7: chr9:130210260:130210261:-_ENSG00000197958_ENST00000361436|hu_mus|FALSE|FALSE (ssRNA)
RNA: GGGAGUUCUACAGUCCGACGAUCGCCCACAGACUGUGCAGUACCCAGGAUCUCCUUGAUAGUUCCAGAAAGUUCUCUAGCCAAAGACCGGUGUCUCAUCUGCCGGGCAAUGUUGACAAUCUCAUCAAAAGUAAUGUUCCCACUCAACAGAGGAUUGAGCAUCA
B8: chr1:39494564:39494565:+_ENSG00000168653_ENST00000372967|hu_hu|hu_hu_hu_mus_True|48_78 (ssRNA)
RNA: GGGAGUUCUACAGUCCGACGAUCAUGCAUUCGCCUCAUCGUUUUGUACCGAAGCAAACACUCUACGAAGUCAUCGAACUCUAUCUUGCACUCUUUCUUCGCCCGGGUCCCACCGAUCCCGUGUGCACACUCUAUCCACUCUUUCAACAGAGGAUUGAGCAUCA
B9: chr4:39507275:39507276:-_ENSG00000109814_ENST00000316423|hu_mus|motif|central (ssRNA)
RNA: GGGAGUUCUACAGUCCGACGAUCACUGGAGGAUUCUCUGGUAUCACCAGUAUCCUUUUUGAAUGCAAACCCCAAGAUAGCGGUCUUCUUAUCGGUCACUGUAUUAAACAGGCUAUCUAUGAUCCGUGAUGCAAACCUCCUCCUCAACAGAGGAUUGAGCAUCA
B10: chr7:151048522:151048523:+_ENSG00000013374_ENST00000566856|hu_mus|hu_hu_hu_mus_True|38_88 (ssRNA)
RNA: GGGAGUUCUACAGUCCGACGAUCCUGUUUCUUAUUUAUUACGAUCUUGAUAUAAUUUUCUUGAAAUCCGAAAGUUUCAGCUAUUUGACACCUCAGGUCUCUGCCAGUGACAUGCAAGCGGGUCUCCAACAAGCUUUUCUUAUCCAACAGAGGAUUGAGCAUCA
B11: chr8:71637431:71637432:+_ENSMUSG00000006273_ENSMUST00000006435|mus_hu|FALSE|FALSE (ssRNA)
RNA: GGGAGUUCUACAGUCCGACGAUCCACGGGGUAGGGAAGUUGCUAUUGCACCCAAGUAACAAAGAACACAGAGAGACCAACAGGACGCAUGGCAGAACUGCAUAGAAGAUCGCUCAGGGCUCACGUCAGGAAGGCGCAGGAAUUCAACAGAGGAUUGAGCAUCA
B12: chr2:24647629:24647630:-_ENSMUSG00000036893_ENSMUST00000134775|mus_mus|FALSE|FALSE (ssRNA)
RNA: GGGAGUUCUACAGUCCGACGAUCGCCGACACUUGGAAGACCCACACCGGCAACUGAAGAGCUUGCCCUUGACGUCCCAAAAGCGCUCCCCGUAGUCGAACCCGAGCUGCUCCCCAGCCUGAAUCAGGCGGGUACUGAAGAAGGCAACAGAGGAUUGAGCAUCA
B13: chr16:8843179:8843180:+_ENSMUSG00000022507_ENSMUST00000023150|mus_hu|FALSE|FALSE (ssRNA)
RNA: GGGAGUUCUACAGUCCGACGAUCUGGGGGAGCUCUAGAGUUUCGUGGUGGAGGAACUUUUCCACACAGGAAGCUGAUCAAAUCUUCUCGACGAAUAGUUCUUCUGCGUUUUUUAACCCAAGCCAACACAUCCUUAUUGCGUCGCAACAGAGGAUUGAGCAUCA
B14: chr10:5827197:5827198:-_ENSG00000057608_ENST00000380191|perfect_dup|motif|central (ssRNA)
RNA: GGGAGUUCUACAGUCCGACGAUCAUACAGGUACGGGCUUUUACCGUAUCUUGCCAAAGACUCGCUGUAAAGUUUAAUUCGGUUAAUGGUUUCACAACACGGCUGAUCUAAGUAGUCAUCUGUUCUGUACAGUGCAAGAGAAUGCAACAGAGGAUUGAGCAUCA
B15: chr10:62551973:62551974:+_ENSG00000170312_ENST00000395284|hu_hu|FALSE|FALSE (ssRNA)
RNA: GGGAGUUCUACAGUCCGACGAUCUAACAUUUUCGAGAGCAAAUCCAAGCCAUUUUCAUCCAAGUUUUUGACAUGGGAUGCUAGGCUUCCUGGUUUCCAUUUGGGAAAUGUAUUCUUAUAGUCCUGUAAAGAUUCCACUUCUGGCAACAGAGGAUUGAGCAUCA
B16: chr5:4083222:4083223:-_ENSMUSG00000001467_ENSMUST00000001507|perfect_dup|FALSE|FALSE (ssRNA)
RNA: GGGAGUUCUACAGUCCGACGAUCGGUGUGGAUCAUUGUUGUAUAAUUCACAGUGGGAAAAUAUCCAUUGAUGAGGUCAAAUUCAUAUAAACGAAGCAUAGUCGACCAAAUUGUCUUAAUUUGAACAUAGGCAAAAUUUUCUCCCAACAGAGGAUUGAGCAUCA
B17: chr8:17827181:17827182:+_ENSG00000078674_ENST00000519253|hu_mus|FALSE|FALSE (ssRNA)
RNA: GGGAGUUCUACAGUCCGACGAUCGCUUUCAAAGGGUUUUGGAAAAGCCAUAUACUCUGUUUUCCCUGAAGGAUUUUGAGCUAAUGGCUGCUGCUGUUCAGUAGGUGUAGAAACAUUCUGAGAAAAAUCUCCAAAAUUAGAAGGCAACAGAGGAUUGAGCAUCA
B18: chr4:124323795:124323796:+_ENSG00000164056_ENST00000339241|hu_mus|motif|central (ssRNA)
RNA: GGGAGUUCUACAGUCCGACGAUCCCACUCCUAUUGAGGCCCAUCCAAGGCAGGAGAGACUCGAGAAGAAAAUCUGCCUCGGAUACCAACAGCCAAAGUUUGGAAGCUAGACAUUCCGCGGAGGUCCAACCCACCUCCAGAAGUCAACAGAGGAUUGAGCAUCA
B19: chr3:20019835:20019836:+_ENSG00000144566_ENST00000273047|hu_mus|FALSE|FALSE (ssRNA)
RNA: GGGAGUUCUACAGUCCGACGAUCCAUAAAUAUUUCAUUUACAUUCAUUGAUGUCUUAGCUGAUGUCUCCAUAAAUAAUAAGCUGUUGUCAUCUGCAUAGGACUGUGCUUCCUGGAAGUCAACAGCUCUUUUAUUUGCUAAGUCCAACAGAGGAUUGAGCAUCA
B20: chr11:87793471:87793472:-_ENSMUSG00000020483_ENSMUST00000020775|mus_mus|mus_mus_mus_hu_False|8_108 (ssRNA)
RNA: GGGAGUUCUACAGUCCGACGAUCUGGGGGCUGGGGAAAAAGAAUAAGCUGGAUCCCCCACCCCCCCACAUUGUCAACCCUACACGAGAGUUUUGAAGGCGACUCAUGAAAAUCAGCAGCUCAAACGAAUGACAACCCCCCACCCAACAGAGGAUUGAGCAUCA
B21: 90057964_90058084_118_5pUTR_ENSMUSG00000032363_ENSMUST00000113059|mouse|control|control (ssRNA)
RNA: GGGAGUUCUACAGUCCGACGAUCAUGGCCCGGACGGGGUGGCCGCAGGACGACCCCUGUGCACUCCUUCGUCUACGCCGUUGCGUCCCAGCCGGGCCUGGGUCCGACUCAGGACAUGCCUGGCUUUAAACUCUUCCCAAGGUCCAACAGAGGAUUGAGCAUCA
B22: chr4:76721835:76721836:+_ENSG00000138768_ENST00000264904|hu_mus|hu_hu_hu_mus_True|8_18 (ssRNA)
RNA: GGGAGUUCUACAGUCCGACGAUCGUUUGGCUGGGGUUUCUGAGACGCUCUGGAAUAUAACUCAUGUUUGCUAAUAAAUCCUAGUUUCUCUAUGAAAUUCUCUUUGCCAAUCCUCUUUCAAUCAGUUGUUUUAGCUUUCUCUUUCAACAGAGGAUUGAGCAUCA

What follows are binders tested against T1, UNK ZnF1-3 (assay: nsRBNS (natural sequence RNA bind-n-seq); RBNS binding buffer (assumed for nsRBNS): 25 mM Tris pH 7.5, 150 mM KCl, 3 mM MgCl2, 0.01% Triton X-100, 500 ug/ml BSA, 20 U/ml SUPERase-In, 4 C; UNK is unkempt and MSI1 is Musashi-1; names of the RNAs are library labels; protein concentration not given here; high values mean tight binding).

| Binder | binding signal |
| --- | --- |
| B1 | 1.29 enrichment R |
| B2 | 0.548 enrichment R |
| B3 | 0.675 enrichment R |
| B4 | 0.791 enrichment R |
| B5 | 0.84 enrichment R |
| B6 | 1.86 enrichment R |
| B7 | 1.22 enrichment R |
| B8 | 0.706 enrichment R |
| B9 | 0.987 enrichment R |
| B10 | 1.13 enrichment R |
| B11 | 1.49 enrichment R |
| B12 | 1.12 enrichment R |
| B13 | 0.575 enrichment R |
| B14 | 0.588 enrichment R |
| B15 | 0.477 enrichment R |
| B16 | 0.915 enrichment R |
| B17 | 1.26 enrichment R |
| B18 | 0.998 enrichment R |
| B19 | 0.742 enrichment R |
| B20 | 1.81 enrichment R |
| B21 | 0.645 enrichment R |
| B22 | 0.555 enrichment R |
